# Measurements taken from PubChem BioAssay AID588855 (National Center for Advancing Translational Sciences (NCATS), 2011).
# Hit rate of the full screen: of about 410,000 compounds, about 5,000 (1.2%) were called active. Inconclusive results, whose numbers are uncertain, are shown with a selection of clear calls. The call rests on the fitted dose curve; in most records, active means well fitted inhibition curve with a large enough effect; inconclusive means small, poorly fitted or top-dose-only effect; inactive means no such curve, though single readings can be large or run the other way. Where the call is inconclusive, the potency comes from a doubtful curve fit.
# Assay: qHTS for Inhibitors of TGF-b; further: nearly all actives have a fitted effect of over 65% in size
# Conditions: HepG2 CAGA-GFP TGF-b/SMAD3 reporter, GFP fluorescence, 18 h, TGF-beta stimulated, 500 pg/mL final; series mostly up to 46.1 µM
# How it was run: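 GFP signal (ex488/em500-530) from TGF-beta-stimulated HEPG2 CAGA-GFP cells, 500 pg/mL final, 18 h at 37 degrees C in DMEM plus 1% FBS, normalized to unstimulated and DMSO-stimulated controls.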
# Potency means the concentration at half of the fitted maximal effect; tags describe the fitted curve by direction and shape.
row,SMILES,Potency
1,CCN1CCN(c2ccc(S(=O)(=O)N3CCCCC3)cc2NC(=O)c2cccc(F)c2)CC1,inactive
2,CSc1cccc(NC(=O)C(c2ccccc2)N2Cc3ccccc3C2=O)c1 (stereo not given),"inconclusive: 11.2 µM [inhibitor, partial curve, poor fit]"
3,COC(=O)c1c(SCC(=O)Nc2cc(F)ccc2F)[nH]c2ccc(C)cc2c1=O,"inconclusive: 3.55 µM [inhibitor, single point]"
4,COC(=O)c1cccc(C(=O)N2CCC(CO)(Cc3ccccc3Cl)CC2)c1,"inconclusive: 31.6 µM [inhibitor, partial curve, poor fit]"
5,COC(=O)Nc1ccc(OCc2ccccc2)cc1,inactive
6,Cc1c(-c2ccc(Cl)cc2)c(=O)oc2c(CN3CCOCC3)c(O)ccc12,"inconclusive: 8.91 µM [inhibitor, partial curve, poor fit]"
7,CCN(C(=O)C1CCN(c2nc(-c3ccc(OC)cc3)no2)CC1)c1ccc(OC)cc1,"inconclusive: 11.2 µM [inhibitor, partial curve]"
8,Cc1ccc(S(=O)(=O)N2C[C@H]3N(C(=O)OC(C)C)N(C(=O)OC(C)C)C[C@H](OC(=O)NCc4ccccc4)[C@@]3(O)C2)cc1,"inconclusive: 35.5 µM [inhibitor, single point]"
9,CN(C)c1cccc(F)c1C(=O)NC(=O)Nc1ccc(Cl)cc1,"inconclusive: 35.5 µM [inhibitor, single point]"
10,O=C(/C=C/c1ccco1)OCc1nnc(-c2ccccc2)o1,"inconclusive: 5.62 µM [inhibitor, full curve, poor fit]"
11,Cc1[nH]nc2c1C(c1c[nH]c3ccccc13)C(C#N)=C(N)O2 (stereo not given),inactive
12,O=C(NCCc1ccccc1)c1cc2sccc2n1Cc1ccc(F)cc1,"inconclusive: 10 µM [inhibitor, partial curve, poor fit]"
13,CCOC(=O)c1ccc(-c2csc(NC(=O)CN3CCC(C)CC3)n2)cc1,"inconclusive: 31.6 µM [inhibitor, single point]"
14,CCOc1cc(/C=N/NC(=O)CSc2nnc(C)s2)ccc1OCc1ccccc1Cl,"inconclusive: 25.1 µM [inhibitor, single point]"
15,COCc1[nH]nc2c1C(C1C=CCCC1)C(C#N)=C(N)O2 (stereo not given),"inconclusive: 25.1 µM [inhibitor, single point]"
16,CN1OC[C@@H]2CN(Cc3ccc(Cl)cc3)[C@H](c3cccc(Br)c3)C[C@@H]21,"inconclusive: 17.8 µM [inhibitor, single point]"
17,COc1ccc(-c2cc(C(F)(F)F)nc(NCCc3ccccc3)n2)cc1,"inconclusive: 17.8 µM [inhibitor, single point]"
18,COc1ccccc1Nc1nc(-c2sc(NC(=O)C(C)(C)C)nc2C)cs1,"inconclusive: 6.31 µM [inhibitor, single point]"
19,O=C(CCN1CCOCC1)c1ccc2c(c1)OCCO2,active: 10 µM
20,Cc1cc(C(=O)CSc2nc3ccccc3[nH]2)c(C)n1CC1CCCO1 (stereo not given),"inconclusive: 6.31 µM [inhibitor, single point]"
21,CCNc1nc(ON=C(C)C)nc(N(C)C)n1,"inconclusive: 6.31 µM [inhibitor, single point]"
22,CN(C(=O)CSc1nc2ccc(NC(=O)COc3ccccc3Cl)cc2s1)c1ccccc1,inactive

row,SMILES,Potency
1,CCCOc1cccc(-c2nc3ccccc3c(=O)o2)c1,"inconclusive: 35.5 µM [inhibitor, single point]"
2,Cc1ccc(Nc2c(-c3ccccc3O)nc3cc(C)ccn23)cc1,"inconclusive: 35.5 µM [inhibitor, partial curve, poor fit]"
3,Cc1ccc2nc(N(CCCN(C)C)C(=O)CCc3ccccc3)sc2c1,"inconclusive: 31.6 µM [inhibitor, single point]"
4,Cc1ccc(C)c(OCCCN2CCc3ccccc3C2)c1,inactive
5,COc1cc(C(=O)O/N=C2\C=CC(=O)C(C)=C2)cc(OC)c1OC,"inconclusive: 28.2 µM [inhibitor, single point]"
6,Cc1ccc(NC(=O)c2ccc(COc3ccc4c(c3)CCC4)cc2)c(C)c1,"inconclusive: 3.16 µM [inhibitor, single point]"
7,COc1cccc(-c2cc(C(F)(F)F)nc(-n3cc(Cl)cn3)n2)c1,inactive
8,CC(C)(C)n1nnnc1C(c1ccc(Cl)cc1)N1CCCc2ccccc21 (stereo not given),"inconclusive: 20 µM [inhibitor, single point]"
9,CC(=O)N1CCN(S(=O)(=O)c2cccc(C(=O)OCc3cccc(F)c3)c2)CC1,inactive
10,CC(NCCCOc1cccc2ccccc12)c1ccccc1 (stereo not given),"inconclusive: 35.5 µM [inhibitor, single point]"
11,COc1ccc(NC(=O)CSC2=C(C#N)C(c3ccco3)C(C(=O)Nc3nc4ccccc4s3)=C(C)N2)cc1 (stereo not given),inactive
12,Cn1cc(S(=O)(=O)c2ccc(Cl)cc2)c(=O)c2cc(F)c(N3CCOCC3)cc21,"inconclusive: 35.5 µM [inhibitor, single point]"
13,O=C(Nc1ccccc1N1CCCCC1)c1ccco1,inactive
14,COCCCNC(=O)c1c(N)n(-c2ccc(S(N)(=O)=O)cc2)c2nc3ccccc3nc12,inactive
15,CCCCN1C(=O)C(CC(=O)NC(c2ccccc2)c2ccccc2)CC(C(=O)N(C(C)C)C(C)C)=C1C (stereo not given),"inconclusive: 35.5 µM [inhibitor, single point]"
16,COc1cc(/C=N/NC(=S)NC2CC3C=CC2C3)cc(OC)c1OC (stereo not given),"inconclusive: 4.47 µM [inhibitor, full curve, poor fit]"
17,CCCCn1nc(NC(=O)c2cccc(Cl)c2)c2cc3ccc(C)cc3nc21,inactive
18,C[C@H](CO)N1C[C@H](C)[C@@H](CN(C)C(=O)Nc2ccc(C(F)(F)F)cc2)Oc2c(NC(=O)Nc3ccccc3)cccc2C1=O,"inconclusive: 20 µM [inhibitor, single point]"
19,CC(=O)Nc1ccc(NS(=O)(=O)c2cc3c4c(c2)CC(=O)N4CCC3)cc1,"inconclusive: 3.98 µM [inhibitor, single point]"
20,CCOC(=O)[C@H]1[C@H]2COc3ccc(Br)cc3[C@@H]2N2C(=O)c3ccc(Cl)cc3NC(=O)[C@@]12C,"inconclusive: 4.47 µM [inhibitor, full curve, poor fit]"
21,CCc1c(C#N)c(SCCC(=O)Nc2cccc(OC)c2)nc2c1C(=O)CC(C)(C)C2,"inconclusive: 35.5 µM [inhibitor, single point]"
22,CCn1c(COc2ccccc2)nc2ccccc21,"inconclusive: 3.98 µM [inhibitor, full curve, poor fit]"

row,SMILES,Potency
1,Cc1nc2ccn(Cc3cccnc3)c(=O)c2cc1C(=O)N1CCN(c2ccccc2)CC1,inactive
2,C[C@@H]1CN([C@@H](C)CO)C(=O)c2cccc(NC(=O)C3CCOCC3)c2O[C@H]1CN(C)S(=O)(=O)c1ccc(Cl)cc1,"inconclusive: 11.2 µM [inhibitor, single point]"
3,COCc1ccc(-c2c(-c3cccc(OC)c3)sc3ccc(OC)cc23)cc1,"inconclusive: 5.01 µM [inhibitor, full curve, poor fit]"
4,Cc1ccc(S(=O)(=O)CCC(=O)N2CCc3ccccc32)cc1,"inconclusive: 0.891 µM [inhibitor, full curve]"
5,CC(=O)Cc1nsc(NC(=O)c2cccs2)n1,inactive
6,CCc1ccc(-n2c(N3CCN(c4cccc(C)c4C)CC3)nc3ccccc3c2=O)cc1,inactive
7,CCN(CC)C(=O)C(=O)c1c(-c2ccccc2)[nH]c2ccccc12,"inconclusive: 0.794 µM [inhibitor, full curve, poor fit]"
8,CC1(C)c2ccccc2N2CC(=O)N[C@@]21/C=C/C=C/c1ccccc1,"inconclusive: 35.5 µM [inhibitor, single point]"
9,COC(=O)c1sccc1S(=O)(=O)N(CC(=O)NCc1ccccc1)c1ccc(C)cc1,"inconclusive: 3.55 µM [inhibitor, full curve]"
10,O=C(Nc1ccc2oc(=O)ccc2c1)c1ccc(-c2cccc(Cl)c2)o1,inactive
11,N#C/C(=N\Nc1ccc(Cl)c(Cl)c1)C(=O)C1CC1,active: 7.08 µM
12,O=C(NN1C(=O)c2ccccc2NC1c1ccc([N+](=O)[O-])o1)c1ccc(Br)cc1 (stereo not given),"inconclusive: 22.4 µM [inhibitor, partial curve, poor fit]"
13,Cc1nn(CCCC(=O)Nc2cc(Oc3ccc(F)cc3)cc([N+](=O)[O-])c2)c(C)c1[N+](=O)[O-],"inconclusive: 35.5 µM [inhibitor, partial curve, poor fit]"
14,COc1cccc2sc(Nc3nc(C)c(C(C)=O)s3)nc12,"inconclusive: 2 µM [inhibitor, partial curve]"
15,Cc1ccc2c(c1)Oc1ccc(NC(=O)CCCl)cc1C(=O)N2,"inconclusive: 31.6 µM [inhibitor, single point]"
16,CCOC(=O)c1c(C)oc2ccc(OCc3cc(C(=O)OC)oc3C)cc12,inactive
17,Oc1ccc(C[C@H]2CNCCN2CCC23CC4CC(CC(C4)C2)C3)cc1,"inconclusive: 35.5 µM [inhibitor, single point]"
18,COC(=O)c1cccc(COC(=O)c2ccc(CS(=O)(=O)c3ccc(C)cc3)cc2)c1,inactive
19,CC1CC(C)CN(S(=O)(=O)c2ccc(C(=O)N3CCOCC3)cc2)C1 (stereo not given),inactive
20,COc1ccc(CCN2C(=O)CSC2=S)cc1OC,"inconclusive: 35.5 µM [inhibitor, single point]"
21,CCOC(=O)c1[nH]c2cc3c(cc2c1NC(=O)CN1CCC(C)CC1)OCO3,"inconclusive: 7.94 µM [inhibitor, single point]"
